Data as given in PubChem BioAssay AID2451 (National Center for Advancing Translational Sciences (NCATS), 2010).
Among all 290,000 compounds or so, about 2,100 (0.72%) were called active. Inconclusive results (about 4%) are left out. Calls follow the shape of the dose curve; as a rule, active = well fitted inhibition curve with a large enough effect; inconclusive = small, poorly fitted or top-dose-only effect, or effect the other way; inactive = flat fitted curve, though single readings scatter. This is a selection; strong and weak results do not stand in their true shares. Where a structure was tested more than once in an assay, its records may differ in their call.

The compounds below were run against Fructose-bisphosphate aldolase (Giardia intestinalis (strain ATCC 50803 / WB clone C6)) (UniProt A8B2U2) (assay: qHTS Assay for Inhibitors of Fructose-1,6-bisphosphate Aldolase from Giardia Lamblia). Settings: purified Giardia FBPA; series mostly up to 59.6 µM; activity, negative = inhibition: at the top concentration.
Sequence of UniProt A8B2U2 (A8B2U2 whole entry, looked up): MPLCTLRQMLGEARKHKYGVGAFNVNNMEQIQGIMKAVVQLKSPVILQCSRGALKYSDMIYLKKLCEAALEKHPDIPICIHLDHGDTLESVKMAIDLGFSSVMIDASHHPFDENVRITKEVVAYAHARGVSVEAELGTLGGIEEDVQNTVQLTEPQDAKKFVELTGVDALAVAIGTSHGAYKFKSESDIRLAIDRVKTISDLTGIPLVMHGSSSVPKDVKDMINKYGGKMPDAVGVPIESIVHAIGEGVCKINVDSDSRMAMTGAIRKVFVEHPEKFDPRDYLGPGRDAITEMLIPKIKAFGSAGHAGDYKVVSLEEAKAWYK
From the text: Assay Provider: Osnat Herzberg, University of Maryland
The objective of this project is to obtain compounds that inhibit Giardia lamblia growth. G. lamblia is a human pathogen which afflicts impoverished nations; it is the most common cause of outbreaks of diarrhea in the United States. During the course of our study of potential drug targets in Giardia, we have identified the Class II (Zn2+ functions in electrophilic catalysis) fructose-1,6-bisphosphate aldolase (FBPA) as an excellent candidate for drug targeting. FBPA is a key glycolytic pathway enzyme, essential for G. lamblia survival. The human FBPA belongs to the Class I aldolases, which have a different substrate binding site structure and a radically different catalytic mechanism (employing a lysine-Schiff base intermediate). Therefore, affinity-based or mechanism-based inhibitors of the Giardia FBPA are expected not to interfere with the catalytic function of the human FBPA.
A glyceraldehyde-3-phosphate dehydrogenase/triose phosphate isomerase/NAD/arsenate coupled assay was adapted to the 1536-well HTP format for use in the primary screen. This was done by coupling it to a diaphorase/resazurin/resorufin reaction that can be monitored by fluorescence (excitation, 544 nm; emission, 590 nm). Compounds identified in this screen will be further evaluated by coupling the glycerol-3-phosphate/triose phosphate isomerase/NADH assay to a phenazine methosulfate/tetranitroblue tetrazolium color reaction. False positives due to the dehydrogenases and diaphorase inhibition will be eliminated, and selectivity assay will triage inhibitors of mammalian triose phosphate isomerase and the Class I FBPA. G. lamblia FBPA inhibitors identified by the in vitro analyses will be examined for growth inhibition of Giardia trophozoites, and for cytotoxicity in human cells.
Step,Parameter,Value,Description
1,Enzyme reagent,2 uL,40 nM FBPA
2,Compound,23 nL,3.68 nM-57.5 uM final concentration
3,Time,10 min,RT Incubation
4,Substrate/detection Reagent,2 uL,Substrate + enzyme coupling system + AmpLite Red kit
5,Time,20 min,RT Incubation
6,Detector,525 nm/598 nm (Fluorescence),ViewLux Fluorescence Read (Read 1)
1,Medium-binding black solid-bottom Kalypsys plates. FRD or Kalypsys dispenser, 2 uL of FBPA enzyme. Bottle kept at 4C.
2,Compound Library (10 mM ,1:5 dilution). Pin-transferred for a [final] range of 3.68 nM-57.5 uM.
4,FRD or Kalypsys dispenser, 2 uL of reaction mixture. Bottle kept at 4C and covered in foil to protect from light.
6,ViewLux Protocol 1194; Excitation filter wheel A (525/20 Pol; BODIPY TMR FP), Emission filter wheel B (598/25 S; BODIPY TMR FP S).
Keywords: Fructose-bisphosphate aldolase, FBPA , Giardia lamblia , Giardia, HTS, Inhibitors
% is scaled to controls: 0 for no effect and ±100 for the full control effect; potency is read from the fitted curve at half-maximal effect.
Also: nearly all actives have a fitted effect of over 55% in size.

Structure (SMILES) | Potency | activity, negative = inhibition
CCCN(CCC)S(=O)(=O)c1ccc(C(=O)O)cc1 | inactive | 
CCCCC1=CC2=CC(=O)C(C)(OC(=O)CC)C(=O)C2=CN1Cc1ccco1 (centres undefined) |  | inactive: -25.2% [at 12.9 µM]
O=C(O)CSc1cccc2cccnc12 |  | inactive: -25.4%
CC(C)(C)[C@H]1C=C(C(=O)NCc2ccccc2)O[C@@H](OCc2ccc(CO)cc2)C1 |  | inactive: -1.78%
CC1(C)OC1COc1c2occc2cc2ccc(=O)oc12 (centres undefined) |  | inactive: -5.39%
C[n+]1cc2c3c(ccc2c2ccc4cc5c(cc4c21)OCO5)OCO3 | inactive | 
CCc1cc(-c2n[nH]c(=S)n2N)n(C)n1 | active: 9.98 µM | 
Cc1ccccc1NC(=S)NNC(=O)c1ccco1 | active: 7.94 µM | 
CN(C)[C@@H]1C(=O)C(C(N)=O)=C(O)[C@@]2(O)C(=O)C3=C(O)c4c(O)ccc(Cl)c4[C@@](C)(O)C3C[C@@H]12 (some centres undefined) |  | inactive: -19.5%
C=Cc1c(C)c2cc3[nH]c(cc4nc(cc5nc(cc1[nH]2)C(C)=C5CCC(=O)O)C(CCC(=O)O)=C4C)c(C)c3C=C |  | inactive: -4.28%
COc1cc(O)c2c(c1)oc(=O)c1c3cc(O)c(O)cc3oc21 |  | inactive: -3.45%
c1cc(Cc2cnc[nH]2)ccn1 |  | inactive: -12.4%
N[C@@H](CCC(=O)N[C@H](CSN=O)C(=O)NCC(=O)O)C(=O)O |  | inactive: -0.224%
NS(=O)(=O)c1ccc(NC2=CC(=O)C(=O)c3ccccc32)cc1 | active: 2.51 µM | 
O=C(O)c1cc(O)c2c(c1)C(=O)c1cccc(O)c1C2=O |  | inactive: -20.9%
COC(=O)/C=C1/N/C(=N\c2nc(C)cc(C)n2)N(c2ccc(C)c(C)c2)C1=O |  | inactive: -24.2%
CCCc1cc(=O)[nH]c(=S)[nH]1 | inactive | 
CC(=O)O[C@@]1(C(C)=O)CCC2C3C=C(Cl)C4=CC(=O)CC[C@]4(C)C3CC[C@]21C (some centres undefined) |  | inactive: -0.734%
COC(=O)CCCC1=CC2=C(c3ccccc3)C(=O)C(C)(OC(=O)C3CCCC3)C(=O)C2=CN1Cc1ccc(OC)cc1 (centres undefined) |  | inactive: -21.1% [at 12.9 µM]
COc1ccccc1CN1CCN(Cc2cc(OC)c(OC)cc2OC)CC1 | active: 25.1 µM | 

Structure (SMILES) | Potency | activity, negative = inhibition
COc1ccc2c(c1)c(CC(=O)O)c(C)n2C(=O)c1ccc(Cl)cc1 | inactive | 
O=C(O)c1cc(=O)cc(C(=O)O)[nH]1 |  | inactive: -6.07%
N#C/C(=C/c1ccc(-c2ccccc2[N+](=O)[O-])o1)C(N)=O |  | inactive: -27.1%
CN(C)[C@@H]1C(=O)C(C(N)=O)=C(O)[C@]2(O)C(=O)C3=C(O)c4c(O)ccc(Cl)c4[C@H](O)[C@H]3C[C@@H]12 |  | inactive: -19.3% [at 21.7 µM]
CSc1ccc(CNc2ncc(-c3cccc([N+](=O)[O-])c3)n2C)cc1 | active: 20 µM | 
Cc1c(O)c(=O)ccn1Cc1ccccc1 |  | inactive: -6.72% [at 12.9 µM]
O=C(CCCN1C(=O)/C(=C/c2ccco2)SC1=S)Nc1cccc(C(=O)O)c1 | active: 15.8 µM | 
COc1cc(NCc2ccc3nc(N)nc(N)c3c2C)cc(OC)c1OC | active: 5.61 µM | 
CCCCC1=CC2=C(c3ccco3)C(=O)C(C)(OC(=O)c3ccc(OC)cc3)C(=O)C2=CN1c1ccccc1 (centres undefined) |  | inactive: -17% [at 12.9 µM]
OCCN1CCN(CC/C=C2\c3ccccc3Sc3ccc(C(F)(F)F)cc32)CC1 |  | inactive: -8.6% [at 21.7 µM]
CC(C)[C@@]1(NC(=O)[C@@H]2C[C@H]3c4cccc5[nH]cc(c45)C[C@@H]3N(C)C2)O[C@@]2(O)[C@H]3CCCN3C(=O)[C@H](Cc3ccccc3)N2C1=O | inactive | 
CC(C(=O)Nc1ccccc1F)N1CCN(C)CC1 (centres undefined) | active: 15.8 µM | 
CN[C@@H]1[C@H](O)[C@H](NC)[C@H]2O[C@@]3(O)C(=O)C[C@@H](C)O[C@H]3O[C@@H]2[C@H]1O | inactive | 
CC(CO)NC(=O)C1C=C2c3cccc4[nH]cc(c34)C[C@H]2N(C)C1 (some centres undefined) |  | inactive: 2.45%
C[C@@H](C(=O)O)c1cccc(C(=O)c2ccccc2)c1 |  | inactive: 9.9% [at 21.7 µM]
O=c1oc2ccccc2c2oc3cc(O)c(O)cc3c12 |  | inactive: -20%
CC(=O)c1cccc(NC(=S)N2CCc3ccccc32)c1 | active: 25.1 µM | 
O=C(CC(NCc1ccccn1)C(=O)O)Nc1ccccc1Cl (centres undefined) | active: 6.29 µM | 
N#C/C(=C\c1ccc(O)c(O)c1)C(=O)NCCCc1ccccc1 |  | inactive: 12.3%
CC(CN1CCCC1)OC(=O)c1cccc(F)c1 (centres undefined) | active: 17.8 µM | 

Structure (SMILES) | Potency | activity, negative = inhibition
O=C1C=CC(=O)c2c(O)c(Cl)c(Cl)c(O)c21 | active: 12.6 µM | 
CC[n+]1c(/C=C(/C)SC)sc2ccccc21 |  | inactive: -4.43%
CCOC(=O)c1c(N)ssc1=S |  | inactive: -0.742%
COc1c(O)cc2oc(-c3ccc(O)c(O)c3)cc(=O)c2c1O |  | inactive: -24.4%
CCCn1nnc(NC(=S)NC(=O)/C=C/c2ccco2)n1 | active: 15.8 µM | 
O=[N+]([O-])c1ccccc1S(=O)(=O)Nc1cccc2cccnc12 |  | inactive: -18.2%
Nc1nc2ncc(CNc3ccc(C(=O)N[C@@H](CCC(=O)O)C(=O)O)cc3)nc2c(=O)[nH]1 | inactive | 
COc1cc(O)c(C(CCN2CCN(c3ccccc3)CC2)c2ccc3c(c2)OCO3)c(OC)c1 (centres undefined) |  | inactive: -27.2%
CC(=O)CC(c1ccccc1)c1c(O)c2ccccc2oc1=O (centres undefined) | inactive | 
CC1=C/C(=C(/c2cc(C)c(O)c(Br)c2)c2ccccc2S(=O)(=O)O)C=C(Br)C1=O |  | inactive: -22.2%
Cc1ccccc1/C=N/n1c(-c2ccccn2)n[nH]c1=S | active: 3.97 µM | 
O=C(Nc1cccc(C(=O)Nc2ccc(S(=O)(=O)O)c3cc(S(=O)(=O)O)cc(S(=O)(=O)O)c23)c1)Nc1cccc(C(=O)Nc2ccc(S(=O)(=O)O)c3cc(S(=O)(=O)O)cc(S(=O)(=O)O)c23)c1 |  | inactive: 29.7%
CC(=O)N(C)c1ccc(N=Nc2c(C)[nH]n(-c3ccccc3)c2=O)cc1 | active: 4.47 µM | 
CCOc1cc(CC(=O)N[C@@H](CC(C)C)c2ccccc2N2CCCCC2)ccc1C(=O)O |  | inactive: 27.6% [at 21.7 µM]
[O-]/C(=C(\C(=S)Nc1cccc2ccccc12)[n+]1ccccc1)c1ccc2c(c1)OCCO2 | active: 9.98 µM | 
NCCSSCCN |  | inactive: -1.18%
CN(C)[C@@H]1C(=O)C(C(N)=O)=C(O)[C@]2(O)C(=O)C3=C(O)c4c(O)ccc(Cl)c4[C@](C)(O)[C@H]3C[C@@H]12 |  | inactive: -26.1% [at 21.7 µM]
CC(C(=O)O)c1cccc(C(=O)c2ccccc2)c1 (centres undefined) | inactive | 
O=C1ON=C(c2ccccc2)/C1=C/c1ccc(O)c(O)c1 | active: 3.98 µM | 
